Among all 280,000 compounds or so, about 540 (0.19%) were called active. Roughly 2% stayed inconclusive and do not appear here. The call rests on the fitted dose curve; in most records, active means well fitted activation curve with a large enough effect; inconclusive means small, poorly fitted or top-dose-only effect; inactive means flat fitted curve, though single readings scatter. The entries are a selection whose mix differs from that of the whole data set.
Potency means the concentration at half of the fitted maximal effect.

The experiment is described as follows: Quantitative High-Throughput Screen for Regulators of Epigenetic Control. Further: nearly all actives have a fitted effect of over 60% in size. On GFP activation: % of control where 0% means no effect. The note with it: murine LDR cells, GFP reporter derepression, 30 h; series mostly up to 53.9 µM; GFP activation: at the top concentration. The source says:
NIH Molecular Libraries Screening Centers Network [MLPCN] NIH Chemical Genomics Center [NCGC] MLSCN Grant: 1 X01 MH079860-01 Assay Provider: Elisabeth D. Martinez, University of Texas SW Medical Center NCGC Assay Overview: The Locus Derepression (LDR) assay detects the derepression or induction of a GFP reporter that is stably integrated in a genomic region of murine cells that is presumably silenced. Transcription of the GFP reporter is controlled by a CMV promoter, which normally is constitutively active. However, this cell line, termed LDR, was selected for lack of constitutive production of GFP. GFP production can be induced by incubating the cells with histone deacetylase or DNA methyltransferase inhibitors (Martinez et al., 2006). Compounds that derepress or induce this reporter locus are identified by enumerating GFP positive cells using a laser-scanning microplate cytometer (Auld et al., 2006). This assay was screened against the MLSMR earlier (AID 597; (Johnson et al., 2008) and has been rescreened here against the expanded collection.
NCGC Assay Protocol Summary: Three hundred LDR cells in 5 uL per well were dispensed into black, clear-bottom 1536-well plates. Twenty-three nL compound was transferred to the assay plate and cells were incubated 30 hours at 37 C. Medium was removed, cells were washed two times with PBS, and GFP-positive cells were enumerated as fluorescent objects between the sizes of 20 to 120 um width and depth using an Acumen Explorer. References Auld, DS, Johnson, RL, Zhang, YQ, Veith, H, Jadhav, A, Yasgar, A, Simeonov, A, Zheng, W, Martinez, ED, Westwick, JK, Austin, CP, Inglese, J (2006). Fluorescent protein-based cellular assays analyzed by laser-scanning microplate cytometry in 1536-well plate format. Methods Enzymol 414: 566-89. Johnson, RL, Huang, W, Jadhav, A, Austin, CP, Inglese, J, Martinez, ED (2008). A quantitative high-throughput screen identifies potential epigenetic modulators of gene expression. Anal Biochem 375: 237-48. Martinez, ED, Dull, AB, Beutler, JA, Hager, GL (2006). High-content fluorescence-based screening for epigenetic modulators. Methods Enzymol 414: 21-36.
As for `CCCCc1[nH]c(=O)c(C#N)c2c1CSC(C)(C)C2`, the “GFP activation” value is inactive: -4.84%. Turning to `Nc1c(N2CCCC2)cc(Cl)c2nonc12`, the “GFP activation” value was inactive: -6.59%. As for `CC(=Nc1ccccc1)c1sc2ccccc2c1O`, the “GFP activation” value is inactive: 1.28%. Still for that read-out and setting: the value for `COc1ccc2c(C=Nc3c(C)n(C)n(-c4ccccc4)c3=O)c(O)n(Cc3ccco3)c(=O)c2c1` was inactive: -1.08%; that for `COC(=O)[C@H]1C(OC)[C@@H](OC(=O)c2cc(OC)c(OC)c(OC)c2)C[C@@H]2CN3CCc4c([nH]c5cc(OC)ccc45)[C@H]3C[C@H]21` (stereo partly specified) was inactive: 7.41%.

As for `CCOC(=O)c1c(NC(=O)CC2Nc3cc(C)c(C)cc3NC2=O)sc(C)c1C` (stereo unspecified), the Potency is active: 8.91 µM. As for `CCN(CC)c1ccc2nc3c(=O)n(C)c(=O)n(C)c3nc2c1`, the Potency was active: 12.6 µM.

Turning to `CN1CCN(C(=O)c2cc3c(ccc4ccccc43)oc2=O)CC1`, the “GFP activation” value was inactive: -7.55%.

As to `CS(=O)(=O)N1CCN(C(=O)c2c(F)cccc2F)CC1`, the “GFP activation” value is inactive: 0%. Consider `COc1ccccc1NC(=O)c1ccc(S(=O)(=O)N(C)C)cc1`, for which the “GFP activation” value is inactive: -0.901%. Turning to `O=C1S/C(=C/c2ccc(N3CCOCC3)o2)C(=O)N1Cc1c(F)cccc1Cl`, the Potency is active: 2.51 µM. As for `CC(c1ccccc1)C1C(C#N)=C(N)SC(N)=C1C#N` (stereo unspecified), the “GFP activation” value is inactive: -1.75%. The same measure, in the same setting: the result for `CCCCCCCCNC(C)C(O)c1ccc(SC(C)C)cc1` (stereo unspecified) reads inactive: 1.33%.

Regarding `O=C(NCc1ccccc1Cl)c1ccc(Nc2nc3ccccc3n3nnnc23)cc1`, the Potency was active: 10 µM. Still for that read-out and setting: the result for `COc1ccc(-[n+]2c(C)cc(/C=C3\Sc4ccccc4N3C)cc2C)cc1` reads active: 3.16 µM; that for `CC[n+]1c(/C=C/c2c[nH]c3ccccc23)ccc2cc(C)ccc21`, active: 4.47 µM.

In the case of `COc1ccc2cc(C#N)c(NC(C)C)nc2c1`, the “GFP activation” value was inactive: -15.9%. For `COc1cc(C2NC(=O)NC(c3ccccc3)=C2C(C)=O)ccc1OCC#N` (stereo unspecified), the “GFP activation” value is inactive: 2.56%. Consider `Cc1cc(C)c(C)c(S(=O)(=O)Nc2ccccc2C(=O)O)c1C`, for which the “GFP activation” value was inactive: -1.43%. Consider `COC(=O)c1cc2occc2n1Cc1nc(-c2cccc(Cl)c2)oc1C`, for which the “GFP activation” value was inactive: -4.29%. Take `Cn1cc(C2=C(c3cn(CCCSC(=N)N)c4ccccc34)C(=O)NC2=O)c2ccccc21`: the “GFP activation” value is inactive: 0%. As for `NC(=O)c1c(-c2ccccc2)oc2ccc(O)cc12`, the “GFP activation” value was inactive: -11.1%. `BrC(/C=N/Nc1nc(N2CCOCC2)nc(N2CCOCC2)n1)=C/c1ccccc1`: the “GFP activation” value is inactive: 1.69%. For `COc1ccc(NC(=O)CSc2nc3c(oc4ccccc43)c(=O)n2Cc2ccco2)cc1Cl`, the Potency was active: 3.55 µM. Take `COc1ccc(S(=O)(=O)N2CCCC2C(=O)Nc2ccc(C)cc2)cc1` (stereo unspecified): the “GFP activation” value is inactive: -12.7%. In the case of `O=C(O)CCC(=O)N1CCC[C@H]1C(=O)O`, the “GFP activation” value is inactive: 0%. For `O=C1NCN(c2ccccc2)C12CCN(CCCC(c1ccc(F)cc1)c1ccc(F)cc1)CC2`, the Potency result is “inactive”. As for `CCOC(=O)C(C)Sc1ccc2nnc(CCNS(=O)(=O)c3ccc(C)cc3)n2n1` (stereo unspecified), the “GFP activation” value was inactive: -5.88%. On the same count and under the same terms, the result for `CCOc1ccc2c(c1)C(C)=CC(C)(C)N2` reads inactive: 0.348%. Take `O=C(Nc1cccc(OCc2cc(=O)n3c4c(sc3n2)CCCC4)c1)c1ccc(F)cc1`: the Potency is active: 25.1 µM. Regarding `Cc1cc(C2CCCCC2)n(O)c(=O)c1`, the “GFP activation” value was inactive: 5.33%. In the case of `CC(C)(C)c1ccc(Oc2nc3ccccn3c(=O)c2/C=C(\C#N)c2nc3ccccc3[nH]2)cc1`, the Potency is active: 25.1 µM. For `COC(=O)c1ccccc1SC(CC(=O)c1ccccc1)c1ccc(F)cc1` (stereo unspecified), the Potency is active: 22.4 µM. `CCCC[C@H]1C(=O)N(c2ccccc2)N(c2ccc(O)cc2)C1=O`: the “GFP activation” value was inactive: 1.37% [at 16.9 µM]. Regarding `COc1ccc(N2CCN(S(=O)(=O)c3ccc(OC)c(-c4noc(C)n4)c3)CC2)cc1`, the Potency was active: 5.01 µM. `C/C(=N\NC(=O)C(C)Oc1ccc([N+](=O)[O-])cc1)c1ccccn1` (stereo unspecified): the Potency is active: 15.8 µM.

As for `CCOCCc1nnc(NC(=O)c2ccc(OC)c(OC)c2)s1`, the “GFP activation” value is inactive: -14.3%. Same read-out and setting: the result for `C=C1C(=O)O[C@@H]2[C@H]3O[C@]3(C)CC/C=C(\C)CC[C@@H]12` reads inactive: 0%. As for `CCCCCCCCCCCCCCCC(=O)NCCO`, the Potency entry was “inactive”. Consider `Cc1nn(C)cc1CNC(=O)c1ccc(Br)o1`, for which the “GFP activation” value is inactive: -11.6%. The same measure, in the same setting: the result for `CCCc1[nH]nc2c1C1(CCOC1C)C(C#N)=C(N)O2` (stereo unspecified) reads inactive: -12.1%. In the case of `CCOC(=O)c1ccc(N=c2sc(C(=O)OC)cc(=O)n2CCCN2CCOCC2)cc1`, the “GFP activation” value was inactive: 8.74%. On to `CCCCCCCCCCCCCCCC(=O)NCCc1ccc(O)c(O)c1`, for which the “GFP activation” value was inactive: 7.67%.

Consider `CCN(CCCNC(=O)COc1cc(=O)n(CC)c2ccccc12)Cc1ccccc1`, for which the “GFP activation” value was inactive: 3.17%. Take `COc1cccc(NC(=O)CSc2c3c(nc4ccccc24)CCCC3)c1`: the “GFP activation” value was inactive: 6.55%. As for `Cc1nn(C(=O)c2ccoc2C)c(N)c1-c1ccccc1`, the “GFP activation” value was inactive: -1.01%. Consider `Cc1ccc(-c2cccc(NC(=O)C3C4C=CC(C4)C3C(=O)O)c2)o1` (stereo unspecified), for which the “GFP activation” value was inactive: 1.03%. For `O=C(CCN1C(=O)/C(=C\c2cccs2)SC1=S)Nc1ccccn1`, the “GFP activation” value is inactive: 8.23%. On to `Cc1ccc2nc(SCC(=O)Nc3ccc4sc(C)nc4c3)c(C#N)cc2c1`, for which the Potency was active: 5.62 µM. With `O=c1c2cn[nH]c2nc(SCc2c(F)cccc2F)n1-c1ccc(Cl)cc1`, the “GFP activation” value was inactive: -6.53%. Regarding `Cc1ccc(-c2nc(SCC(=O)NCC3CCCO3)c(-c3ccc(C)cc3)[nH]2)cc1` (stereo unspecified), the “GFP activation” value was inactive: 1.71%.

Values taken from PubChem BioAssay AID1865 (National Center for Advancing Translational Sciences (NCATS), 2009).
